From paper PMC4336329 (PLoS ONE, 2015)
Hit rate of the full screen: of about 310,000 compounds, about 14,000 (4.5%) showed an effect of 50% or more. Effects have a minus sign here. This is one part of the list.

The compounds below were run against human ether-à-go-go-related gene (hERG) potassium channel (human, UniProt Q12809) (assay: primary screen, population patch clamp on CHO cells stably expressing hERG).
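Further: peak tail current of the secondary pulse compared with the same well before compound.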

Chain of human ether-à-go-go-related gene (hERG) potassium channel (Q12809 whole entry, looked up): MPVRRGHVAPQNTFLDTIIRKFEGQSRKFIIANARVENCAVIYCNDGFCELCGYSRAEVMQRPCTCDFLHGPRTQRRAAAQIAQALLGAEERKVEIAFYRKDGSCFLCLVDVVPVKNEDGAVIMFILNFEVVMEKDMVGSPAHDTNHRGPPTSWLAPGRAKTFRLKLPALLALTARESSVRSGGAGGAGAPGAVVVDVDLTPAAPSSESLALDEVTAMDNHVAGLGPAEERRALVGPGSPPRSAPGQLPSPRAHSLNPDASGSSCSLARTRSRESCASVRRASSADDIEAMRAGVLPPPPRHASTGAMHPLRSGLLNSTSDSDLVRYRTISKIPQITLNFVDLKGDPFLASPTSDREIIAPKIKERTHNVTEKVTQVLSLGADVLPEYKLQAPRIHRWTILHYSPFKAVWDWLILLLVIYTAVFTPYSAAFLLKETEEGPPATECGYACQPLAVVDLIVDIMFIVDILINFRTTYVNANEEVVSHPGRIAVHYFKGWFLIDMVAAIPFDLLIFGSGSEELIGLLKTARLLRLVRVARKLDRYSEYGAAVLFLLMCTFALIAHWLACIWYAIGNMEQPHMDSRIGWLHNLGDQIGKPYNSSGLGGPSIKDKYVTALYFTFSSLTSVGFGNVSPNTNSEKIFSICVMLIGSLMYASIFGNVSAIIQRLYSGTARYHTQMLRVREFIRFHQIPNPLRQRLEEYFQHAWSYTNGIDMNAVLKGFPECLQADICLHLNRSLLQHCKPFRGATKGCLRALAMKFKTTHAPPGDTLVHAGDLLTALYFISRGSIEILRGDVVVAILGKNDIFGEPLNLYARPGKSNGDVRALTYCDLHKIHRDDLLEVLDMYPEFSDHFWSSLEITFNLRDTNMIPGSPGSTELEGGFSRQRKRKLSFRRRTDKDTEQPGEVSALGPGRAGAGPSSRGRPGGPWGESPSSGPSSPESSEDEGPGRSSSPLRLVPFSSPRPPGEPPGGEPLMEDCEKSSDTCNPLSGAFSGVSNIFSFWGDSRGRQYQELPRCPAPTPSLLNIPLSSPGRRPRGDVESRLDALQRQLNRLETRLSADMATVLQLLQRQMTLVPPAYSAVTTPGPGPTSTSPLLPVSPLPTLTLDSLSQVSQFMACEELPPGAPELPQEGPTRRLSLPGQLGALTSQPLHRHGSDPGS

Row | SMILES | hERG current change (%, negative = inhibition) at 10uM [%]
1 | COc1ncnc(NS(=O)(=O)c2ccc(N)cc2)c1OC | -12.2
2 | CCOC(=O)CSc1nc(-c2ccccc2)nc2ccc(F)cc12 | 25
3 | Cc1ccc(CN2CCN(Cc3cnn(-c4ccc(F)cc4)c3)CC2CCO)o1 (stereo not shown) | -56.1
4 | C=CCN1C(=O)CSc2ccc(C(=O)OCC)cc21 | -16.2
5 | COc1ccc(NC(=O)NCc2cccnc2)c(OC)c1 | 16.5
6 | O=C(CCS(=O)(=O)c1cccs1)NC1CCCCCC1 | 1.63
7 | Cc1nn(Cc2cccc(C(=O)NC(C)c3ccc(C(C)(C)C)cc3)c2)c(C)c1[N+](=O)[O-] (stereo not shown) | -6.38
8 | CS(=O)(=O)Nc1cccc(C2=NN(C(=O)c3cccc([N+](=O)[O-])c3)C(c3cccs3)C2)c1 (stereo not shown) | -13.4
9 | CC1(C)CC(=O)C2=C(C1)N(Cc1cccnc1)C(=O)C2(NC(=O)C1CC1)C(F)(F)F (stereo not shown) | -2.59
10 | CC(Oc1ccc(Cl)cc1Cl)C(=O)NCCN1CCOCC1 (stereo not shown) | -4.16
11 | COc1ccccc1N1CCN(CCNC(=O)Nc2cccc(C)c2C)CC1 | -68.8
12 | CCOc1cc(/C=C2/NC(=O)N(CC(=O)OC)C2=O)ccc1O | 3.71
13 | Cc1ccc(S(=O)(=O)Cc2ccc(C(=O)NC3CCCCCC3)o2)cc1 | -19.3
14 | O=[N+]([O-])c1nn(-c2ccc3c(c2)OCCO3)n(O)c1=NCc1ccccc1Cl | 0.261
15 | CN1C(=O)NC(c2ccc([N+](=O)[O-])cc2)C2=C1CC(C)(C)CC2=O (stereo not shown) | 7.27
16 | O=C1CCCc2c1cc(-c1ccccc1)n2-c1ccccc1 | -19.3
17 | N#CC1=C(N)SC(N)=C(C#N)C1CCc1ccccc1 | 26.4
18 | Cc1cccc(C)c1NC(=O)CNC(=O)c1ccc2nc[nH]c2c1 | 12.2
19 | O=C(c1nn2cccnc2c1Cl)N1CCN(c2ccccc2)CC1 | 2.01
20 | C=CCn1c(NCc2ccccc2OC)nc2ccccc21 | -18.9
21 | COC(=O)c1cc(S(=O)(=O)NCC2CCN(Cc3cccc(Cl)c3)CC2)c[nH]1 | -41.9
22 | CCOc1ccc(NC(=O)C2CCC(CNc3c(N4CCOCC4)c(=O)c3=O)CC2)cc1 (stereo not shown) | 3.11

Row | SMILES | hERG current change (%, negative = inhibition) at 10uM [%]
23 | CCN(CC)C(=O)COc1ccc2oc(-c3ccco3)cc(=O)c2c1 | -1.47
24 | CC1C(=O)N2CCCc3cc(S(=O)(=O)N(C)CCC#N)cc1c32 (stereo not shown) | 1.48
25 | N#C/C(=C/c1ccc(Cl)cc1)NC(=O)c1ccccc1 | 7.27
26 | CC1CCN(CC(=O)Nc2sc3c(c2C#N)CCC3)CC1 | 8.67
27 | CCCCOc1ccc(C(=O)Nc2ccc(S(=O)(=O)Nc3cc(C)on3)cc2)cc1OC | 15.7
28 | CCCCCn1c(N2CCN(c3cccc(Cl)c3)CC2)nc2c1c(=O)[nH]c(=O)n2C | -29.2
29 | COc1cc(OC)c(NC(=O)Nc2ccc(OC)c(OC)c2)cc1Cl | 10.9
30 | O=C1CCC(c2ccccc2)c2ccccc21 (stereo not shown) | 10.4
31 | c1nc(NC2CCCC2)c2[nH]cnc2n1 | -2.8
32 | O=C(NCCNc1cc(Cl)ccc1[N+](=O)[O-])c1ccco1 | -9.34
33 | CCN(CC)C(=O)c1[nH]cnc1C(=O)N[C@@H](C)C(=O)OC(C)(C)C | -5.56
34 | COc1ccc(/C=C(\NC(=O)c2ccco2)C(=O)Nc2ccc(C(C)=O)cc2)cc1 | 10.8
35 | COc1ccc(NC(=O)CSc2ccc(-c3sc(C)nc3C)nn2)cc1OC | 1.46
36 | C=CCOc1c(Br)cc(/C=N/Nc2ccc(C(=O)O)cc2)cc1OCC | -3.21
37 | N#Cc1cccc(Nc2c3c(nc4ccccc24)CCCC3)c1 | -74.8
38 | COc1ccc(CCC(=O)N(C)CC(=O)Nc2cc(C)ccc2C)cc1 | -5.86
39 | O=C(c1cccc(NS(=O)(=O)c2ccc(F)c(F)c2)c1)N1CCN(C(c2ccccc2)c2ccccc2)CC1 | -14.3
40 | COc1ccc(NC2CCCN(C(=O)c3ccc(OC)cc3OC)C2)cc1 (stereo not shown) | -6.37
41 | O=C(O)c1ccc(NS(=O)(=O)c2ccc3c(c2)OCCO3)cc1 | -19.3
42 | Oc1c(CN2CCOCC2)cc(COCc2ccccc2)c2cccnc12 | -26.8
43 | COc1ccc(S(=O)(=O)Cc2ccc(C(=O)NCc3ccco3)o2)cc1 | -28.8
